In the supplement of paper PMC6609913 one finds normalised cell viability data, which are given here for 34 compounds.

Where a name gives a salt, the structure may show the parent alone. ± gives the standard deviation of the averaged measurements. In all, about 1,300 compounds were measured (“normalised cell viability”: median about 1, lowest 2% from about 0.14 on). The list shows a part of the results.

The assay has as its system V-C8 (BRCA2-deficient hamster cells). Kind of assay: normalised cell viability (fraction of plate median); higher = more viable cells (less toxic). The settings on record: 5 µM. The method in brief:
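Library drugs, held as 10 mM stocks in DMSO, were diluted to 5 μM in 100 μl medium and added to 96-well plates of V-C8 hamster cells, either lacking BRCA2 or with BRCA2 restored, 24 h after seeding. Plates ran for 3 days (screen 1) or 6 days (screen 2), alongside solvent-only wells. Viability came from a resazurin readout, median-plate normalised, as the mean of triplicate wells.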

On to `CC(=C(CCO)SSCC1CCCO1)N(C=O)Cc1cnc(C)nc1N` (stereo in doubt) [Fursultiamine Hydrochloride], for which the normalised cell viability by setting is: (treatment time: 3 days) 1.03 ± 0.025; (treatment time: 6 days) 1.03 ± 0.0084.
With `CCC(C)(CN(C)C)OC(=O)c1ccccc1` (stereo not drawn) [Amyleine hydrochloride], the normalised cell viability reads like this: (treatment time: 3 days) 1.074 ± 0.0072; (treatment time: 6 days) 1.02 ± 0.036.
On to `C=C(NC(=O)C(=C)NC(=O)c1csc(C2=N[C@@H]3c4csc(n4)[C@H]4NC(=O)c5csc(n5)[C@H]([C@](C)(O)[C@@H](C)O)NC(=O)[C@H]5CSC(=N5)/C(=C/C)NC(=O)[C@H]([C@@H](C)O)NC(=O)c5csc(n5)[C@]3(CC2)NC(=O)[C@H](C)NC(=O)C(=C)NC(=O)[C@H](C)NC(=O)[C@H]([C@@H](C)CC)N[C@@H]2C=Cc3c([C@H](C)O)cc(nc3[C@H]2O)C(=O)O[C@@H]4C)n1)C(N)=O` [Thiostrepton], for which the normalised cell viability was 0.14 ± 0.011 (treatment time: 3 days) and 0.126 ± 0.0091 (treatment time: 6 days).
As to `CC(C)(Oc1ccc(C2CC2(Cl)Cl)cc1)C(=O)O` (stereo not drawn) [Ciprofibrate], the normalised cell viability was found to be 0.973 ± 0.022 (treatment time: 3 days) and 1.01 ± 0.086 (treatment time: 6 days).
As for `C=CCN1CCCC1CNC(=O)c1cc2nn[nH]c2cc1OC` (stereo not drawn) [Alizapride HCl], the normalised cell viability runs as follows: (treatment time: 3 days) 1.02 ± 0.048; (treatment time: 6 days) 1.098 ± 0.0094.
In the case of `CC1=C(C(=O)O)N2C(=O)[C@@H](NC(=O)[C@H](N)c3ccc(O)cc3)[C@H]2SC1` [Cefadroxil], the normalised cell viability reads like this: (treatment time: 3 days) 1.07 ± 0.057; (treatment time: 6 days) 1.08 ± 0.035.
In the same order, the values of `CC(C)(C)NCC(O)COc1cccc2c1CC(O)C(O)C2` (stereo not drawn) [Nadolol] are 1.02 ± 0.073 and 1.04 ± 0.035.
In the case of `CC[C@H](C)C(=O)O[C@H]1C[C@H](O)C=C2C=C[C@H](C)[C@H](CC[C@@H](O)C[C@@H](O)CC(=O)O)[C@H]21` [Pravastatin], the normalised cell viability was 0.967 ± 0.092 (treatment time: 3 days) and 0.988 ± 0.085 (treatment time: 6 days).
For `CC1=C(C(=O)O)N2C(=O)[C@@H](NC(=O)[C@H](N)c3ccccc3)[C@H]2SC1` [Cephalexin monohydrate], the normalised cell viability is, setting by setting: (treatment time: 3 days) 1.25 ± 0.026; (treatment time: 6 days) 1.09 ± 0.1.
Regarding `CCOCCn1c(N2CCCN(C)CC2)nc2ccccc21` [Emedastine], the normalised cell viability was determined as 0.996 ± 0.029 (treatment time: 3 days) and 1.02 ± 0.058 (treatment time: 6 days).
Consider `COc1ccc2c(c1)c(CC(=O)OCC(=O)O)c(C)n2C(=O)c1ccc(Cl)cc1` [Acemetacin], for which the normalised cell viability was 1.13 ± 0.012 (treatment time: 3 days) and 1.05 ± 0.052 (treatment time: 6 days).
In the case of `Cc1nccn1CC1CCc2c(c3ccccc3n2C)C1=O` (stereo not drawn) [Ondansetron Hydrochloride], the normalised cell viability is, setting by setting: (treatment time: 3 days) 1.07 ± 0.04; (treatment time: 6 days) 1.1 ± 0.082.
The corresponding values for `O=C1C(O)=C(O)C(=O)C(O)=C1O` [Tetrahydroxy-1,4-quinone monohydrate] are 1.01 ± 0.026 and 1.01 ± 0.048.
Compound `CC(=O)NC[C@H]1CN(c2ccc(N3CCOCC3)c(F)c2)C(=O)O1` [Linezolid] yielded a normalised cell viability (treatment time: 3 days) of 1.04 ± 0.039 and a normalised cell viability (treatment time: 6 days) of 0.972 ± 0.047.
Consider `Clc1cc(Cl)c(OCC#CI)cc1Cl` [Haloprogin], for which the normalised cell viability was found to be 0.354 ± 0.01 (treatment time: 3 days) and 0.476 ± 0.052 (treatment time: 6 days).
In the same order, the values of `Nc1nc(=O)[nH]cc1F` [Flucytosine] are 1.06 ± 0.02 and 0.987 ± 0.025.
With `Nc1nnc(-c2cccc(Cl)c2Cl)c(N)n1` [Lamotrigine], the normalised cell viability came out at 1.03 ± 0.024 (treatment time: 3 days) and 1.03 ± 0.073 (treatment time: 6 days).
The corresponding values for `CC[C@@]1(O)C(=O)OCc2c1cc1n(c2=O)Cc2cc3c(CN(C)C)c(O)ccc3nc2-1` [Topotecan] are 0.144 ± 0.0092 and 0.166 ± 0.023.
In the case of `CC(=O)O[C@]1(C(C)=O)CC[C@H]2[C@@H]3C=C(C)C4=CC(=O)CC[C@]4(C)[C@H]3CC[C@@]21C` [Megestrol acetate], the normalised cell viability is 0.918 ± 0.083 (treatment time: 3 days) and 0.91 ± 0.034 (treatment time: 6 days).
The corresponding values for `Cc1cccc(C)c1NC(=O)CN1CCN(CCCC(c2ccc(F)cc2)c2ccc(F)cc2)CC1` [Lidoflazine] are 0.302 ± 0.021 and 0.549 ± 0.07.
For the compound `N=C(N=C(N)N)N1CCOCC1` [Moroxidine hydrochloride], the normalised cell viability was found to be 0.95 ± 0.064 (treatment time: 3 days) and 1.02 ± 0.059 (treatment time: 6 days).
`CC(=O)OCC(=O)[C@@]12OC3(CCCC3)O[C@@H]1C[C@H]1[C@@H]3CCC4=CC(=O)C=C[C@]4(C)[C@@]3(F)[C@@H](O)C[C@@]12C` [Amcinonide]: the normalised cell viability runs as follows: (treatment time: 3 days) 0.994 ± 0.062; (treatment time: 6 days) 0.963 ± 0.06.
In the same order, the values of `CC(=O)Nc1ccc(OCC(O)CNC(C)C)cc1` (stereo not drawn) [Practolol] are 1.08 ± 0.066 and 1.07 ± 0.042.
The corresponding values for `CN1[C@@H]2CC[C@H]1C[C@@H](OC(c1ccccc1)c1ccccc1)C2` [Benztropine mesylate] are 0.981 ± 0.012 and 1.02 ± 0.04.
Consider `CCCC(=O)Nc1ccc(OCC(O)CNC(C)C)c(C(C)=O)c1` (stereo not drawn) [Acebutolol hydrochloride], for which the normalised cell viability by setting is: (treatment time: 3 days) 0.97061 ± 0.00064; (treatment time: 6 days) 0.9785 ± 0.0078.
`O=C(Nc1ccccc1)OCC(CN1CCCCC1)OC(=O)Nc1ccccc1` (stereo not drawn) [Diperodon hydrochloride]: the normalised cell viability is 1.02 ± 0.019 (treatment time: 3 days) and 0.929 ± 0.18 (treatment time: 6 days).
`CCCCC1C(=O)N(c2ccccc2)N(c2ccccc2)C1=O` [Phenylbutazone] displayed a normalised cell viability (treatment time: 3 days) of 1.07 ± 0.053 and a normalised cell viability (treatment time: 6 days) of 1.07 ± 0.095.
Regarding `CC(=O)/N=c1/sc(S(N)(=O)=O)nn1C` [Methazolamide], the normalised cell viability was determined as 1.02 ± 0.023 (treatment time: 3 days) and 1.02 ± 0.029 (treatment time: 6 days).
Consider `N=C(N)N1CCc2ccccc2C1` [Debrisoquin sulfate], for which the normalised cell viability came to 1.05 ± 0.041 (treatment time: 3 days) and 1.09 ± 0.013 (treatment time: 6 days).
Compound `CCCc1nc2c(C)cc(-c3nc4ccccc4n3C)cc2n1Cc1ccc(-c2ccccc2C(=O)O)cc1` [Telmisartan] registered a normalised cell viability (treatment time: 3 days) of 0.931 ± 0.05 and a normalised cell viability (treatment time: 6 days) of 0.937 ± 0.048.
In the same order, the values of `CCCCOC(=O)c1ccc(O)cc1` [Butylparaben] are 1.07 ± 0.11 and 1.01 ± 0.1.
As for `O=C(O)Cc1cc(I)c(Oc2ccc(O)c(I)c2)c(I)c1` [Tiratricol, 3,3',5-triiodothyroacetic acid], the normalised cell viability by setting is: (treatment time: 3 days) 0.981 ± 0.023; (treatment time: 6 days) 1.03 ± 0.032.
For the compound `COCCCOc1ccnc(C[S+]([O-])c2nc3ccccc3[nH]2)c1C` (stereo not drawn) [Rabeprazole Sodium salt], the normalised cell viability is, setting by setting: (treatment time: 3 days) 0.9318 ± 0.0092; (treatment time: 6 days) 0.938 ± 0.038.
Turning to `O=C(CCCCC(=O)Nc1c(I)cc(I)c(C(=O)O)c1I)Nc1c(I)cc(I)c(C(=O)O)c1I` [Iodipamide], the normalised cell viability runs as follows: (treatment time: 3 days) 1.03 ± 0.06; (treatment time: 6 days) 0.972 ± 0.029.
